The other results are listed elsewhere or left out.
B1: PhoQ; a variant is named by its letters at X, in order, P23837 (parent)
chain: MKKLLRLFFPLSLRVRFLLATAAVVLVLSLAYGMVALIGYSVSFDKTTFRLLRGESNLFYTLAKWENNKLHVELPENIDKQSPTMTLIYDENGQLLWAQRDVPWLMKMIQPDWLKSNGFHEIEADVNDTSLLLSGDHSIQQQLQEVREDDDDAEMTHSVAVNVYPATSRMPKLTIVVVDTIPVELKSSYMVWSWFIYVLSANLLLVIPLLWVAAWWSLRPIEALAKEVRELEEHNRELLNPATTRELTSLVRNLNRLLKSERERYDKYRTTLTDLTHSLKTPLXXLQXXLRSLRSEKMSVSDAEPVMLEQISRISQQIGYYLHRASMRGGTLLSRELHPVAPLLDNLTSALNKVYQRKGVNISLDISPEISFVGEQNDFVEVMGNVLDNACKYCLEFVEISARQTDEHLYIVVEDDGPGIPLSKREVIFDRGQRVDTLRPGQGVGLAVAREITEQYEGKIVAGESMLGGARMEVIFGRQHSAPKDE

Variants of: B1
Assay: enrichment ratio after two sorts for PhoP signalling (ratio (wild type AVST 3.29)); higher = more functional
Conditions: with PhoP (E. coli)

| Variant | enrichment ratio |
| --- | --- |
| RALE | ≤ 0.25 |
| SEQV | 4.26 |
| SGFN | ≤ 0.25 |
| YQTV | ≤ 0.25 |
| VMHK | 2.31 |
| DKNT | ≤ 0.25 |
| FKND | ≤ 0.25 |
| NFII | ≤ 0.25 |
| QWRL | ≤ 0.25 |
| VGTF | ≤ 0.25 |
| KFPQ | ≤ 0.25 |
| LHTT | ≤ 0.25 |
| SSWV | 0.518 |
| GHPV | ≤ 0.25 |
| NSFI | ≤ 0.25 |
| FVYH | ≤ 0.25 |
| SRMM | 1.64 |
| GRIH | ≤ 0.25 |
| KYDC | ≤ 0.25 |
| YHTG | 6.02 |
| LWWY | ≤ 0.25 |
| AMSR | 0.608 |
| WHPF | ≤ 0.25 |
| HDDW | ≤ 0.25 |
| FPDP | ≤ 0.25 |
| HEMW | ≤ 0.25 |

| Variant | enrichment ratio |
| --- | --- |
| VKSF | ≤ 0.25 |
| LGME | ≤ 0.25 |
| VTCP | ≤ 0.25 |
| HDEF | ≤ 0.25 |
| LEPL | ≤ 0.25 |
| VPKK | ≤ 0.25 |
| ANAL | 8.66 |
| HQDQ | ≤ 0.25 |
| YRLG | ≤ 0.25 |
| GGDD | ≤ 0.25 |
| KWFA | ≤ 0.25 |
| PKPN | ≤ 0.25 |
| EMPH | ≤ 0.25 |
| FWIY | ≤ 0.25 |
| WNWD | ≤ 0.25 |
| LDYM | ≤ 0.25 |
| PWQH | ≤ 0.25 |
| LHLK | ≤ 0.25 |
| RFRI | ≤ 0.25 |
| RCGN | ≤ 0.25 |
| LSEP | ≤ 0.25 |
| DDGR | ≤ 0.25 |
| GDSQ | ≤ 0.25 |
| DMVE | ≤ 0.25 |
| WNVL | ≤ 0.25 |
| GAHY | ≤ 0.25 |

| Variant | enrichment ratio |
| --- | --- |
| WMVT | ≤ 0.25 |
| YCPM | ≤ 0.25 |
| RGHQ | ≤ 0.25 |
| LRHY | ≤ 0.25 |
| RPNR | ≤ 0.25 |
| FNRS | ≤ 0.25 |
| WPPT | ≤ 0.25 |
| VKPH | ≤ 0.25 |
| YIDP | ≤ 0.25 |
| VPCF | ≤ 0.25 |
| PWSL | ≤ 0.25 |
| KNWH | ≤ 0.25 |
| RVLK | ≤ 0.25 |
| ETPP | ≤ 0.25 |
| HCSP | ≤ 0.25 |
| IMMG | ≤ 0.25 |
| IGKK | ≤ 0.25 |
| RICW | ≤ 0.25 |
| WRDF | ≤ 0.25 |
| CHCH | 6.79 |
| LSFS | 0.269 |
| QHKS | ≤ 0.25 |
| FCMG | 1.72 |
| PTDH | ≤ 0.25 |
| QSRI | ≤ 0.25 |
| ESRY | ≤ 0.25 |

| Variant | enrichment ratio |
| --- | --- |
| VAEL | ≤ 0.25 |
| SFID | ≤ 0.25 |
| HHRI | ≤ 0.25 |
| AFWV | ≤ 0.25 |
| HLMH | ≤ 0.25 |
| HNEA | ≤ 0.25 |
| KGFC | ≤ 0.25 |
| GHIV | ≤ 0.25 |
| PCLK | ≤ 0.25 |
| RDDR | ≤ 0.25 |
| GHPD | ≤ 0.25 |
| VDCP | ≤ 0.25 |
| LHFR | ≤ 0.25 |
| FFRL | ≤ 0.25 |
| QTML | ≤ 0.25 |
| EIED | ≤ 0.25 |
| DTQT | ≤ 0.25 |
| IACG | ≤ 0.25 |
| GIYN | 0.353 |
| ARMQ | ≤ 0.25 |
| FHIK | ≤ 0.25 |
| DMGM | ≤ 0.25 |
| KQNT | ≤ 0.25 |
| NWRM | ≤ 0.25 |
| KNPY | ≤ 0.25 |
| YCWA | ≤ 0.25 |

| Variant | enrichment ratio |
| --- | --- |
| FPQW | ≤ 0.25 |
| VYKD | ≤ 0.25 |
| SWEE | ≤ 0.25 |
| IIGG | ≤ 0.25 |
| TGTL | 13.5 |
| PMRK | ≤ 0.25 |
| MQRD | ≤ 0.25 |
| KANR | ≤ 0.25 |
| KTAS | ≤ 0.25 |
| YHWC | ≤ 0.25 |
| DQYD | ≤ 0.25 |
| ANFC | ≤ 0.25 |
| LHNH | ≤ 0.25 |
| IWHC | ≤ 0.25 |
| DFIM | ≤ 0.25 |
| VMPM | ≤ 0.25 |
| QMIT | ≤ 0.25 |
| HFKI | ≤ 0.25 |
| ISKW | ≤ 0.25 |
| WFAQ | ≤ 0.25 |
| PHIE | ≤ 0.25 |
| PPKH | ≤ 0.25 |
| SKKK | ≤ 0.25 |
| RCDP | ≤ 0.25 |
| MYYW | ≤ 0.25 |
| RPRD | ≤ 0.25 |

| Variant | enrichment ratio |
| --- | --- |
| GGSM | 7.14 |
| SRDF | ≤ 0.25 |
| IELW | ≤ 0.25 |
| QQCM | ≤ 0.25 |
| ERVH | ≤ 0.25 |
| TFGA | 2.06 |
| YTKQ | ≤ 0.25 |
| MHPW | ≤ 0.25 |
| GYYL | ≤ 0.25 |
| LETG | ≤ 0.25 |
| MINR | ≤ 0.25 |
| LCMC | ≤ 0.25 |
| YMPW | ≤ 0.25 |
| NIYH | ≤ 0.25 |
| AEEW | ≤ 0.25 |
| KFDG | ≤ 0.25 |
| ACSY | 4.44 |
| PFPK | ≤ 0.25 |
| GLLQ | 3.83 |
| KYPC | ≤ 0.25 |
| TMYW | ≤ 0.25 |
| NTMY | ≤ 0.25 |
| RIGW | ≤ 0.25 |

From a collection of fitness landscapes (doi:10.1126/science.1257360)
